# ± gives the standard deviation of the averaged measurements. The list shows a part of the results.
# System: PfAP2-EXP AP2 domain (GST-tagged)
# Assay: gcPBM binding intensity (ln(normalized median fluorescence intensity)); higher = stronger DNA binding
# Method in brief: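 Binding intensity is defined as the maximum Masliner-normalised natural-log median intensity across replicate spots for either probe orientation. It was measured on an Agilent 4 × 180k array of primer-extended double-stranded 36-bp intergenic genomic probes and negative controls, to which GST-tagged P. falciparum DNA-binding domains made in E. coli were applied for 1 h in 1× PBS with 1% milk, 0.2 mg/ml BSA, 0.5% salmon testes DNA and 0.03% Triton X-100. Detection was by Alexa488 anti-GST antibody and scanning at 488 nm.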
row,Sequence,gcPBM binding intensity (ln)
1,TTTTTAAAAAAAAATAGAGAGTCAAAGTATGTGGCG [CACACA_negctrl_site194],8.63 ± 0.18
2,TAAAAAAAGAGATATTGTACACAAAAAAATTTTACT [XGTACX_site1342],8.62 ± 0.43
3,AAGTTCAAAATAAATGGTACAGAAGTATATATATCA [XGTACX_site174],8.67 ± 0.47
4,TAGAAAAAAAAATACATACACACAATATATTTATTT [CACACA_site3123],8.23 ± 0.37
5,AAAATCTAGGTATTTATACACACTAATATAATATAC [CACACA_site8108],8.47 ± 0.36
6,TATATATTTGTGAAAATATTAAAATAAATAAATAAA [CACACA_negctrl_site295],8.37 ± 0.36
7,ATATATATATATATATGTACATAATTAATAATTAGA [XGTACX_site5672],10.3 ± 0.25
8,AAAAATCGATACAAGCGTACAAAATAAAATAAAAAT [XGTACX_site5546],8.86 ± 0.49
9,ACCAATAATATACATACACACATAAAGGTTTATATA [CACACA_site315],8.46 ± 0.24
10,TTACACATATTATATATATATAAAAAAAAAAAATAT [CACACA_negctrl_site1684],8.46 ± 0.36
11,TAATATCATTTAGACACACACTCTTACAATATGTAA [CACACA_site5434],8.34 ± 0.39
12,TCTATTAACTGATGTGCATGTTATAACCTAGAAGTA [TGCATGCA_site359],8.63 ± 0.38
13,AGTTCGAATATATAAAGTACATAATTATATATTTGC [XGTACX_site2604],8.54 ± 0.42
14,TGGATTCGTATATGTAGTACTATTTATATGTGATTT [XGTACX_site1581],8.48 ± 0.4
15,TAAATTGAGTATATTACACACATATAAATATATTAT [CACACA_site4027],8.35 ± 0.59
16,TCTTATCCTACTTTTATTTTTACTTTTTTTTCTTAT [CACACA_negctrl_site111],8.88 ± 0.31
17,TATATATATATATGTATATATGTATATCTATATTTA [CACACA_negctrl_site131],10 ± 0.19
18,AATATATACCAACATAAATATATATATATATATATA [TGCATGCA_negctrl_site334],10.2 ± 0.49
19,TAATAAATATATAATTGTACTTAAAAGAATATAAAA [XGTACX_site2928],8.32 ± 0.38

row,Sequence,gcPBM binding intensity (ln)
1,AAGTGTATATAAAAATGTACATATTTCGATTTAAAT [XGTACX_site4161],8.72 ± 0.35
2,TTAAGATAGCAAATATGTACACATTTGTAAAATAAA [XGTACX_site4837],8.71 ± 0.35
3,TGTACATAAATCTAATTATTATATGTGTATATATAT [CACACA_negctrl_site1582],8.55 ± 0.014
4,AGTACAGACATAGACACACACACACCCATAAAAAAA [CACACA_site1515],8.64 ± 0.38
5,TCACATATTATCTTTACACACTATATATAAGTTTTA [CACACA_site2790],8.61 ± 0.34
6,TCATGTTTTACAAAAACACACAAATGAATATAAACC [CACACA_site1161],8.88 ± 0.46
7,CGTATGCAAGGAACCACACACACACCCATAAATGTA [CACACA_site749],8.51 ± 0.45
8,AAAAAATAGACATATACACACATATGTATTTATAAT [CACACA_site5225],8.38 ± 0.35
9,TAAAAATTCAATTGCACACGCACATATTTTAATAAG [CACACA_site2014],8.35 ± 0.25
10,AATATAATAATAAAAACACACACGTTGATTGTATTA [CACACA_site2381],8.32 ± 0.51
11,TTTTTTTTTATAAGGTGTACGTAAAATGTGTAGGTC [XGTACX_site3585],9.12 ± 0.26
12,ATTTCATATAGTGTAGTGCAATTTTAAGCATCAAGG,8.84 ± 0.14
13,ATGTCATTATATACATGTACGCATATCTGTTTATCC [XGTACX_site3947],8.92 ± 0.44
14,CCTATAATAAATAATACACACATATTGTAAATATAT [CACACA_site7496],8.46 ± 0.53
15,TTAAAAATAAAAAATACACACTCTAGTCCATGTAAC [CACACA_site3640],8.37 ± 0.35
16,ACTACATAATATTTACGTACCTAAAAAATTCTTATA [XGTACX_site509],8.51 ± 0.33
17,TAAGTGCTTTTCAACTGTACCTTCCATTTATTTATT [XGTACX_site8589],8.51 ± 0.24
18,TCTTGACTAAATATATGTACATATATTTTAATAATA [XGTACX_site701],8.45 ± 0.3
19,AAAAAAAAAAAAAATACACACGTGAATGTATTGTTT [CACACA_site4856],8.53 ± 0.42

row,Sequence,gcPBM binding intensity (ln)
1,GTATTCAAAAGTGAAACATGCAATAATATATATATA [TGCATGCA_site617],9.73 ± 0.13
2,TTCTTATTTTATATTTCACACATTTTTACTATACTT [CACACA_site5817],9.1 ± 0.28
3,AGAATGAAATAATATACACACAAAGGAAAAATGTAA [CACACA_site3911],8.99 ± 0.38
4,ATACGTATTTATTTCACACACGTTAAAAAAATAAAA [CACACA_site6027],8.38 ± 0.32
5,AAGGAGCCTATGAACACACACATGTACCTATATTAA [CACACA_site7838],8.6 ± 0.42
6,ATAAAGAAAAGGAACACACAAATATGTAAATATGTA [CACACA_site6356],8.72 ± 0.42
7,TTACACATAAATACCATATAAATATAATGCATATCT [CACACA_negctrl_site1731],8.35 ± 0.37
8,TAAAATATTATCTACGCACACATTAAAATAAAAAAA [CACACA_site3709],8.41 ± 0.39
9,AAAACATTATTCCATACACACCATACTTTTTAATAA [CACACA_site7326],8.51 ± 0.3
10,CATTTGCACACGCACACACACATAAAAAGAAAAATA [CACACA_site6297],8.58 ± 0.47
11,TATATATATTTAAAAAGTACAAAAAAAAAAAATGAA [XGTACX_site374],8.74 ± 0.54
12,TATGTAGATAAATAAGCACACACCAAACATATAAAA [CACACA_site1182],8.95 ± 0.55
13,ATCAGTCGAGATGACAGTACACAGTAGCCAGGAAAT [XGTACX_site4932],8.93 ± 0.5
14,AAATGTTGAAATGATACACACATATAAATATAAATA [CACACA_site7229],8.53 ± 0.42
15,AATAATAAACACAATCAAATAAAATATGAAATATAA [GTGCAC_negctrl_site307],8.39 ± 0.35
16,CCCTGAGCACTTTCGTGTACTAATAGTAACAATAAT [XGTACX_site1418],9.05 ± 0.54
17,AAACAAATGTATATGTGTACTTATTTTTTTGTATGT [XGTACX_site7134],8.365 ± 0.064
18,TATTTATTAAAACACACACACACACCGACAAAATAA [CACACA_site4293],8.9 ± 0.54

# Source: the supplement of paper PMC11417369
